No constants are given. Whether binding was seen depends on the method and setting. Values belong to the binder of their own block, whether it stands above or below them.
Molecular target: T1, OSD1 (OMISSION OF SECOND DIVISION), yeast two-hybrid bait (Arabidopsis thaliana) (UniProt Q9M2R1)
T1 sequence: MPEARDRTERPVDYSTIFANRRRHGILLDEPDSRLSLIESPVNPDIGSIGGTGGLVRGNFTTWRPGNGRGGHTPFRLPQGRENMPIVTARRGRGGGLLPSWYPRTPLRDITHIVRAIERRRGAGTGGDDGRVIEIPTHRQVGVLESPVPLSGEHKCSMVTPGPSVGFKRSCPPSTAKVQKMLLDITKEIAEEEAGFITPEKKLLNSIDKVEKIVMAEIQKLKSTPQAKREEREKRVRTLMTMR
Assay: two-hybrid; OSD1 as bait (pDEST32) with different APC/C subunits as prey (pDEST22), by mating

binding: no binding
B1: APC2, yeast two-hybrid prey (protein, UniProt Q8H1U5 1-865)
chain: MEALGSSDCNLEILETLSDDAIQEITESYDGFFTTVESLIAGTGDSLVEDEFVSHVYCLCKYGLDSLVRDHFLRSLEQAFEKGGASSFWQHFDAYSEKKHHNYGEEIQIVLCKALEEISIEKQYHEKCLSIVVHALQSFKEQSSDDRQNSDTERVHLFSRFQSMLSSTLMTTLPQHFPEILHWYFKERLEELSAIMDGDGIEEQEDDCMDLDEKLRYKNGEMDVDEGCSQGKRLGHDKLVKNIGKVVRDLRSIGFTSMAENAYASAIFLLLKAKVHDLAGDDYRTSVLESIKEWIQTVPLQFLNALLSYLGDSVSYGTTSSGLTSPLACCPSPSFSRVVTPSEGIVRWKLRLEYFAYETLQDLRIAKLFEIIVDYPESSPAIEDLKQCLEYTGQHSKLVESFISSLKYRLLTAGASTNDILHQYVSTIKALRAIDPAGVFLEAVGEPIRDYLRGRKDTIKCIVTMLTDGSGGNANGSGNPGDSLLEELMRDEESQENVGFDDDFHTDDKQAWINASRWEPDPVEADPLKGSLSQRKVDILGMLVDIIGSKEQLVNEYRVMLAEKLLNKTDYDIDTEIRTVELLKIHFGEASMQRCEIMLNDLIDSKRVNTNIKKASQTGAELRENELSVDTLTSTILSTNFWPPIQDEPLELPGPVDKLLSDYANRYHEIKTPRKLLWKKNLGTVKLELQFEDRAMQFTVSPTHAAIIMQFQEKKSWTYKDLAEVIGIPIDALNRRVNFWISKGVLRESTGANSNSSVLTLVESITDSGKNEGEELLTGEEEGETSIASVEDQLRKEMTIYEKFIMGMLTNFGSMALERIHNTLKMFCVADPSYDKSLQQLQSFLSGLVSEEKLEFRDGMYLLKK

binding: no binding
B2: APC8, yeast two-hybrid prey (protein, UniProt Q9STS3 1-579)
chain: MVSKECCRNEIRAAIRQLSDRCLYSAAKWAGEQLVGIEQDPSNFTPANTRFQRGSSSIRRRFSTNESISTPLPSVGFSQAATPLPEEDEAIDGDIYLLAKSYFDCREYRRASHMLRDQVSKKSLFLRYYALYLAGEKRKEEEMIELEGPLGKSDAINRELVSLERDLSALRRTGAIDSFGLYLYGVVLKEKGNESLARASLVESVNSYPWNWSAWSELQSLCTSIEILNSLNLNNHWMKEFFLGNAYQELRMHTESLAKYEYLQGIFSFSNYIQAQTAKAQYSLREFDQVEIMFEELLRNDPYRVEDMDLYSNVLYAKEACAALSYLAHKVFLTDKYRPESCCIIGNYYSLKGQHEKAVMYFRRALKLNKKYLSAWTLMGHEYVEMKNTPAAIDAYRRAVDINPTDYRAWYGLGQAYEMMGMPFYALHYFRKSIFFLPNDSRLWIAMAKCYQTEQLYMLEEAIKCYKRAVNCTDTEGIALNQLAKLHQKLGRNEEAAYYFEKDLERMDAEGLEGPNMFEALVFLATHFKNHKKFEEAEVYCTRLLDYSGPEKEKAKSLLRGIRMAQTGFPSMDLEHFPI

binding: no binding
B3: CDC27a, yeast two-hybrid prey (protein, UniProt Q06AN9 1-717)
chain: MMENLLANCVQKNLNHFMFTNAIFLCELLLAQFPSEVNLQLLARCYLSNSQAYSAYYILKGSKTPQSRYLFAFSCFKLDLLGEAEAALLPCEDYAEEVPGGAAGHYLLGLIYRYSGRKNCSIQQFRMALSFDPLCWEAYGELCSLGAAEEASTVFGNVASQRLQKTCVEQRISFSEGATIDQITDSDKALKDTGLSQTEHIPGENQQDLKIMQQPGDIPPNTDRQLSTNGWDLNTPSPVLLQVMDALPPLLLKNMRRPAVEGSLMSVHGVRVRRRNFFSEELSAEAQEESGRRRSARIAARKKNPMSQSFGKDSHWLHLSPSESNYAPSLSSMIGKCRIQSSKEATTSGQSVSDIGSSVDDEEKSNPSESSPDRFSLISGISEVLSLLKILGDGHRHLHMYKCQEALLAYQKLSQKQYNTHWVLMQVGKAYFELQDYFNADSSFTLAHQKYPYALEGMDTYSTVLYHLKEEMRLGYLAQELISVDRLSPESWCAVGNCYSLRKDHDTALKMFQRAIQLNERFTYAHTLCGHEFAALEEFEDAERCYRKALGIDTRHYNAWYGLGMTYLRQEKFEFAQHQFQLALQINPRSSVIMCYYGIALHESKRNDEALMMMEKAVLTDAKNPLPKYYKAHILTSLGDYHKAQKVLEELKECAPQESSVHASLGKIYNQLKQYDKAVLHFGIALDLSPSPSDAVKIKAYMERLILPDELVTEENL

binding: no binding
B4: APC11, yeast two-hybrid prey (protein, UniProt Q9M9L0 1-84)
chain: MKVKILQWHAVASWTWDAQDETCGICRMAFDGCCPDCKLPGDDCPLIWGACNHAFHLHCILKWVNSQTSQAHCPMCRREWQFKE

binding: no binding
B5: APC6, yeast two-hybrid prey (protein, UniProt B3DNN5 1-543)
chain: MREEEIEKIRGVVRDCVSKHLYSSAIFFADKVAALTNDPSDIYMQAQALFLGRHYRRAFHLLNASKIVLRDLRFRYLAAKCLEELKEWDQCLLMLGDAKVDDDGIVYDAKDGNVIDFDKDGEDREINISSAICFLRGKAYGALQNRSQARQWYKAAIKADPLCYEALECLIESHMLTSEEESSLLSSLQFSPEDGWLSSFYSCLIKKYDKESTVELKFKKLENETSGSVSGSSMITLANNTDLLACKAEYYHQCCEYQKCFELTAALLEKDPFHLKCTLVHLAAAMELGNSNELYLMACNLVKDYPSKALSWFAVGCYYYCIKKYAEARRYFSKATGIDGSFSPARIGYGNSFAAQEEGDQAMSAYRTAARLFPGCHLPTLYIGMEYMRTHSYKLADQFFMQAKAICPSDPLVYNELGVVAYHMKEYGKAVRWFEKTLAHIPSALTESWEPTVVNLAHAYRKLRKDREAISYYERALTLSTKSLSTYSGLAYTYHLQGNFSAAISYYHKALWLKPDDQFCTEMLNVALMDECQNGVDSKVELC

binding: no binding
B6: APC4, yeast two-hybrid prey (protein, UniProt O65418 1-777)
chain: MSEMASDEEENIIPFQLQFDKPIPFQIKIAEWNPEKDLLAMVTEDSKILLHRFNWQRLWTISPGKPVTSLCWRPDGKAIAVGLEDGTISLHDVENGKLLRNLKPHDVAVVCLNWEEDGQSNTDESGNFSVYEDRTSRFFPPAPRPPKMPGLVAGDSSFMDDGEDSLAELSNTSFRKFNILCTGDRDGNICFSIFGIFQIGKINIHELSLPVPHLDEHASCKLFNASIYKVALSKDLCRLVVMCTGELKDCDIKPREEKINVQDLPGLHCLAMDTSIFWKRKYELHQVAQQASNIEDLTEVIRASLSVMNKQWADAMKTFHEKFHSLSTLIIDNGLESSPQEEFLSLLGGARISPALNQFLVNSLGEVGVKRVLKSVCGTGKELQQVVLDHLQPAAEIIGFRIGELRGLSRWRARYQGIGLDEMLLNEATENTGLLLVQVQRFMMVLSSVVQQFSNFFNWLVRSIKYLMQEPNDQLLSYNSELLVVFLKFLYDQDPVKDLLELSEAGDDIEIDLKTIGRVKELLQFGGFSECDFLQRTLAKEFQHMESSFKMAFQMPFTTISRKISCMKLLPLCPLQLSTTQTPTTIPMSLSFYKNELSDDTPCQSGYTDYISFQVPDETFPEISNCIGIAKGYKQNSNNEKNGYTSLEAVLLSVPNGYTCVDLSLYKDKELVLLLNKTNTDSEGSGEACMMVVQTGDLAFISISGSSSLNQWELEDLKGSIVNLEMENEKVRKVPHSVIAPLAVSASRGVACVFAERRRALVYILEEDEDEEISDEK

binding: no binding
B7: APC7, yeast two-hybrid prey (protein, UniProt Q8VY89 1-558)
chain: MEVPKEQIATLIEHGLYDSAEMLGCFLVSSPTVSAETSPQLKAENLILLGDALFHQREHRRAIHTYKQALHHYTRIPKQSSGISRSSLSLSTRSSVNASSISAINENEVRFKIASSHFALNETKAAIAEMESVKTRSLEMNILMAKLHRNSGYNRGAIAFYKECLRQCPYVLEAVIGLAELGVSAKDIISSFTQTSNRSAKVSLDQIDPTRWLQRYVEAQCCVASHAYKGALELFAELLQRFPNNVHLLTETAKVEAIIGKNDEAIMRFEKVRSIDPYTLTSMDEYAMLLQIKCDYSRLNKLVHDLLSVDHTRAEVFVALSVLWERKDARTALSYAEKSIRVDERHIPGYIMKGNLLLQAKRPEAAAIAFRAAQNLRSDLRSYQGLVHSYLAFGKTKEALYTAREAMNAMPQSAKALKLVGDVHAFTSSGREKAKKFYESGLRLEPGYLGAVLALAELHLMEGRNGDAVSLLERYLKDYADDSLHVKLAQVFAATNMLQDSLSHFQAALRINPQNEAAKKGLDRLEKQMKGIDPDATDENDENDVEDVDGDTEEAELM

binding: no binding
B8: HBT, yeast two-hybrid prey (protein, UniProt Q8LGU6 1-744)
chain: MEAMLVDCVNNSLRHFVYKNAIFMCERLCAEFPSEVNLQLLATSYLQNNQAYSAYHLLKGTQMAQSRYLFALSCFQMDLLNEAESALCPVNEPGAEIPNGAAGHYLLGLIYKYTDRRKNAAQQFKQSLTIDPLLWAAYEELCILGAAEEATAVFGETAALSIQKQYMQQLSTSLGLNTYNEERNSTSTKNTSSEDYSPRQSKHTQSHGLKDISGNFHSHGVNGGVSNMSFYNTPSPVAAQLSGIAPPPLFRNFQPAVANPNSLITDSSPKSTVNSTLQAPRRKFVDEGKLRKISGRLFSDSGPRRSSRLSADSGANINSSVATVSGNVNNASKYLGGSKLSSLALRSVTLRKGHSWANENMDEGVRGEPFDDSRPNTASTTGSMASNDQEDETMSIGGIAMSSQTITIGVSEILNLLRTLGEGCRLSYMYRCQEALDTYMKLPHKHYNTGWVLSQVGKAYFELIDYLEAEKAFRLARLASPYCLEGMDIYSTVLYHLKEDMKLSYLAQELISTDRLAPQSWCAMGNCYSLQKDHETALKNFLRAVQLNPRFAYAHTLCGHEYTTLEDFENGMKSYQNALRVDTRHYNAWYGLGMIYLRQEKLEFSEHHFRMAFLINPSSSVIMSYLGTSLHALKRSEEALEIMEQAIVADRKNPLPMYQKANILVCLERLDEALEVLEELKEYAPSESSVYALMGRIYKRRNMHDKAMLHFGLALDMKPPATDVAAIKAAMEKLHVPDEIDESP

binding: no binding
B9: APC5, yeast two-hybrid prey (protein, UniProt Q8H1U4 1-916)
chain: MAGLTRTAGAFAVTPHKISVCILLQIYAPSAQMSLPFPFSSVAQHNRLGLYLLSLTKSCDDIFEPKLEKLINQLREVGEEMDAWLTDHLTNRFSSLASPDDLLNFFNDMRGILGSLDSGVVQDDQIILDPNSNLGMFVRRCILAFNLLSFEGVCHLFSSIEDYCKEAHSSFAQFGAPNNNLESLIQYDQMDMENYAMDKPTEEIEFQKTASGIVPFHLHTPDSLMKATEGLLHNRKETSRTSKKDTEATPVARASTSTLEESLVDESLFLRTNLQIQGFLMEQADAIEIHGSSSSFSSSSIESFLDQLQKLAPELHRVHFLRYLNKLHSDDYFAALDNLLRYFDYSAGTEGFDLVPPSTGCSMYGRYEIGLLCLGMMHFRFGHPNLALEVLTEAVRVSQQLSNDTCLAYTLAAMSNLLSEMGIASTSGVLGSSYSPVTSTASSLSVQQRVYILLKESLRRADSLKLRRLVASNHLAMAKFELMHVQRPLLSFGPKASMRHKTCPVSVCKEIRLGAHLISDFSSESSTMTIDGSLSSAWLKDLQKPWGPPVISPDSGSRKSSTFFQLCDHLVSIPGSVSQLIGASYLLRATSWELYGSAPMARMNTLVYATLFGDSSSSSDAELAYLKLIQHLALYKGYKDAFAALKVAEEKFLTVSKSKVLLLKLQLLHERALHCGNLKLAQRICNELGGLASTAMGVDMELKVEASLREARTLLAAKQYSQAANVAHSLFCTCHKFNLQIEKASVLLLLAEIHKKSGNAVLGLPYALASISFCQSFNLDLLKASATLTLAELWLGLGSNHTKRALDLLHGAFPMILGHGGLELRARAYIFEANCYLSDPSSSVSTDSDTVLDSLRQASDELQALEYHELAAEASYLMAMVYDKLGRLDEREEAASLFKKHIIALENPQDVEQNMA
